Measured values as given in the supplement of paper PMC3334620.
In all, about 33,000 sequences were measured (“E-score (-0.5 to 0.5)”: median about -0.032, highest 2% from about 0.36 on). The list shows a part of the results.

target: T1, Sko1 (UniProt Q02100); test: PBM E-score (8-mer binding enrichment) (E-score (-0.5 to 0.5)); higher = stronger / more preferred TF binding; most listed sequences are background and not binding sites; settings: protein concentration: 200 nM; construct: GST-full length
T1 sequence: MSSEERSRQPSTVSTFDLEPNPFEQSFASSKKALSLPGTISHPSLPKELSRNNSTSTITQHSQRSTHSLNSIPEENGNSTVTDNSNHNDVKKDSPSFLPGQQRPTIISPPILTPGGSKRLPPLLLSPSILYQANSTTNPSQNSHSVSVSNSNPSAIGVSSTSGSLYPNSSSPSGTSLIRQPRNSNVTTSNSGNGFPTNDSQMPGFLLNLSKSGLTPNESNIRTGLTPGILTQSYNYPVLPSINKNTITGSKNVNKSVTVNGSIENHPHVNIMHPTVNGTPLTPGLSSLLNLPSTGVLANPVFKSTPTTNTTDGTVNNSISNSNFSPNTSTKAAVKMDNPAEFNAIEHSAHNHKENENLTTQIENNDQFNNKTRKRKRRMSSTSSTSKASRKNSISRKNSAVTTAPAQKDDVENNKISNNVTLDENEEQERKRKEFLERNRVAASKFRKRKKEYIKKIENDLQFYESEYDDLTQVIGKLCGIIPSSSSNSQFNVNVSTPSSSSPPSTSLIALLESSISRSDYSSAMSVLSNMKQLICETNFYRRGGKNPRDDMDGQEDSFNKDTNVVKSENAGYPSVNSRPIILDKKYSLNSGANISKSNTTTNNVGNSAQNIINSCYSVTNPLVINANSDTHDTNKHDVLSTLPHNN
Outline: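 For each ungapped eight-base word taken together with its reverse complement, the Universal PBM Analysis Suite assigned an E-score. Binding data came from GST-tagged yeast transcription factors, applied at about 100-200 nM, on universal all-10-mer Agilent arrays made double-stranded by primer extension. Fluorescent anti-GST marked bound protein, and scans were normalised with masliner.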

Sequence	PBM E-score
AGACATGC	-0.0143
AGCCACAC	0.0697
AAACTCAT	0.132
CGCAGATC	-0.114
CGACTACG	0.228
CTGATACA	-0.058
CGAGTCAA	-0.0833
CGGCGCCG	-0.299
TAAACTCA	0.106
CTAGACTC	-0.256
ATGCATGA	0.289
AAGCCTAA	-0.0491
CATGAGCA	-0.242
AAGTCTCC	-0.0641
CAATTGTG	0.104
ATACCGTC	0.183
CTTCATTA	0.159
GGACCAAC	-0.0204
CGACATGA	0.0616
TAGCTTCA	0.0123
AGCTGACG	0.347
ATATTCTA	0.163
CTACTTCC	0.0434
TAGTGATA	0.119

Sequence	PBM E-score
CGAGGTAC	0.0936
AAATGGGC	-0.205
CATATGTA	0.225
CTGTCCTC	-0.159
GACGTAGC	0.436
ACGCTACG	0.326
ATAGAGCA	-0.0151
GTCAGGTA	0.101
GTATGTGA	0.215
CGTAAACA	0.374
ACACCCAG	-0.211
TCCCTTCA	-0.0391
AACATCGG	-0.109
AATAAGGG	0.0929
CTATCCAA	-0.0885
GGCACCTA	-0.254
AGCATCTA	-0.0134
CACATCGG	-0.173
AAACATTG	0.00049
AGTAATTC	0.169
AGTCGAGC	-0.148
AGAGAATA	-0.0362
GTGCATTA	0.253
GCAGCCTA	-0.0705

Sequence	PBM E-score
TGTATACA	0.235
CGAATCCA	-0.15
ATTTAAGC	0.207
ACTTTGAC	0.147
ATGAAGCA	-0.0889
ACTAGAAA	0.197
AACCCAAC	0.0767
GATTCCTA	-0.00139
TAGTCCCA	-0.123
CATTAGCG	0.0166
AGCGCATG	-0.187
AGAGATGA	0.169
AGCAGAAA	0.0567
ATGCTCAG	-0.11
CTCAATAC	0.197
GTTCATGA	0.14
CATTTTGC	0.114
CATCAACC	0.16
GGTCAACA	-0.04
AACCAGCG	-0.0665
AGGGATAC	-0.115
GTTGCTGA	0.126
CCTTTTCC	-0.226
ACAAACAC	0.226

Sequence	PBM E-score
CGCTACCA	-0.218
AAACGAAC	0.0425
GGAGATGA	0.0286
TACGAGCA	0.024
GGTGATGA	0.18
CAACACCA	-0.0218
CCGATGGA	-0.147
GAAGACAC	0.114
CGTTTAAA	0.277
AATGCACG	0.302
CAGTTTAC	0.132
AGTTTAGC	-0.114
GACCTCGC	-0.122
CAAAATCC	0.0611
ATAACCAA	0.136
ATAATCCC	-0.0805
AAGTCACG	0.126
AGCCACAA	-0.106
GCAACCGA	-0.129
GGATGTGA	-0.191
AATAGTGG	-0.0108
TCTAAGCA	0.0417
